Experimental data taken from PubChem BioAssay AID1963576 (National Center for Advancing Translational Sciences (NCATS), 2024).
The campaign covered roughly 46,000 compounds. About 60 (0.1%) were called active. Not shown: some 3% with an inconclusive outcome. The call rests on the fitted dose curve; in most records, active means well fitted inhibition curve with a large enough effect; inconclusive means small, poorly fitted or top-dose-only effect; inactive means no such curve, though single readings can be large or run the other way. The list shows a part of the results.

Experiment: Primary qHTS assay for Inhibitors of ovarian cancer metastasis using an organotypic tumor microenvironment (TME) model. Further: nearly all actives have a fitted effect of over 65% in size.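 On activity change, negative = inhibition: plate controls were DMSO wells for no effect and tomatine positive control wells for full effect.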
Settings: SKOV3ip1-GFP adhesion/invasion on 3D omental model, fluorescence; series mostly up to 45.8 µM; activity change, negative = inhibition: at the top concentration
Summary of the method: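 Primary human omental fibroblast/mesothelial 3D culture pre-formed 48 h. SKOV3ip1-GFP cells added with compounds (0.36-46 umol/L), incubated 2 h RT/16 h 37 C, fixed; GFP cells quantified at 488/509 nm.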

Row | SMILES | outcome | activity change, negative = inhibition
1 | Cc1cccc(-n2ccnc2SCC(=O)Nc2ccc(F)cc2F)c1C | inactive | 
2 | O=C(Cn1c(=O)oc2cc(S(=O)(=O)N3CCCCCC3)ccc21)NCc1ccccc1Cl | inactive | 
3 | Cc1cc(Oc2c(C(F)(F)F)oc3c(CN4CCC(C)CC4)c(O)ccc3c2=O)cc(C)c1Cl |  | inactive: 2.27%
4 | CCc1ccc(NC(=O)Cn2nc3c4ccccc4n(Cc4ccccc4)cc-3c2=O)cc1 |  | inactive: -1.1%
5 | C[C@H](NC(=O)OC(C)(C)C)c1nnc(SCc2c(F)cccc2Cl)o1 | inactive | 
6 | CCOc1ccc(-c2cc(OC(=O)c3ccc(OC)cc3)c3c(C)oc(C)c3c(=O)c2)cc1 |  | inactive: 2.03%
7 | CCOc1ccc(C(=O)N(Cc2sccc2C)C2CCS(=O)(=O)C2)cc1 (stereo not drawn) | inactive | 
8 | O=C1CC(c2cccc(O)c2)c2c(nc(SCc3ccccc3F)[nH]c2=O)N1 (stereo not drawn) |  | inactive: -0.082%
9 | CCc1nc2ccc(C(=O)N3CCN(c4cccc(C)c4C)CC3)cc2nc1CC |  | inactive: -1%
10 | Cc1ccc(-c2nc3c4ccccc4[nH]c(=O)n3n2)cc1 |  | inactive: -2.83%
11 | O=C(c1ccc(CSc2nc3ccncc3n2Cc2ccc(F)cc2)cc1)N1CCCCCC1 |  | inactive: 14.5%
12 | COCCCNC(=O)c1cc2c(=O)oc3ccc(C)cc3c2s1 |  | inactive: -5.86%
13 | CCc1cccc(-n2c(C)nc3c(cnn3-c3ccc(C)c(C)c3)c2=O)c1 |  | inactive: -1.06%
14 | CCOc1ccc(NC(=O)CSc2nc(C)c(C(=O)Nc3ccccc3)c(-c3ccc(Cl)cc3)c2C#N)cc1 |  | inactive: 4.08%
15 | CCOc1ccccc1CNC(=O)c1cc2n(n1)CCCN(Cc1ccc(C)cc1)C2=O |  | inactive: -3.44%
16 | CCc1ccccc1NC(=O)Nc1ccc2c(c1)N(CC)C(=O)c1ccccc1S2 |  | inactive: -4.22%
17 | COc1cc(OC)c(NC2(c3ccccc3)C(=O)c3ccccc3C2=O)cc1Cl |  | inactive: -3.94%
18 | CCn1c2ccccc2c2cc(CN3CCN(Cc4ccccc4Cl)CC3)ccc21 |  | inactive: 8.74%
19 | COc1cccc(NC(=O)CSc2nc3cc(OC)c(OC)cc3c3nc(-c4ccccc4)nn23)c1 | inactive | 
20 | O=C(Nc1ccc(OC(F)(F)F)cc1)c1nc2ccccc2nc1N1CCCCC1 |  | inactive: 1.4%
21 | CN(C)c1ccc(C(CNC(=O)c2ccccc2C(F)(F)F)N2CCOCC2)cc1 (stereo not drawn) | inactive | 
22 | CN(C)CCNc1ncnc2c1cnn2-c1cccc(Cl)c1 |  | inactive: 6.2%
23 | CSc1ccc(CCNC(=O)Cn2ccc3cc(S(=O)(=O)N4CCCCCC4)ccc32)cc1 |  | inactive: -34.7%
24 | Cc1ccc(CN2CCCN(CC(=O)Nc3ccc(C)cc3C)S2(=O)=O)cc1 | inactive | 

Row | SMILES | outcome | activity change, negative = inhibition
25 | Cc1c(C(=O)Nc2ccc(C(=O)O)cc2)nnn1-c1ccccc1 |  | inactive: -1.87%
26 | Cc1c(Cl)cccc1NC(=O)c1ccc2c(c1)CCN2S(=O)(=O)c1ccccc1 |  | inactive: 13.6%
27 | O=c1c(-c2cc(-c3ccccc3)nc3c2COc2ccc(Cl)cc2-3)coc2ccc(F)cc12 | inactive | 
28 | O=C(Nc1nc2n(n1)C(c1ccc(F)cc1)C=C(c1ccccc1)N2)c1ccco1 (stereo not drawn) |  | inactive: -8.28%
29 | CCCCSc1nnc2c(n1)OC(c1ccc(Br)s1)N(C(C)=O)c1ccccc1-2 (stereo not drawn) |  | inactive: -2.66%
30 | Cc1nn2c(=O)cc(COC(=O)Cc3ccccc3)nc2s1 | inactive | 
31 | Nc1c(C(=O)Nc2ccc(OC(F)(F)F)cc2)sc2nc(-c3ccncc3)ccc12 |  | inactive: 1.64%
32 | CCOc1ccccc1-c1noc(CSc2nnc(-c3ccccc3)n2-c2ccc(F)cc2)n1 |  | inactive: 0.887%
33 | COC(=O)c1c(NC(=O)c2nc(SCc3ccc(F)cc3)ncc2Cl)sc2c1CCCC2 |  | inactive: 0.0438%
34 | COc1ccc(CNC(=O)C2CCCN(S(=O)(=O)c3cccc4nsnc34)C2)cc1 (stereo not drawn) | inactive | 
35 | COc1ccc(NC(=O)CN2C(=O)COc3ccc(S(=O)(=O)N4CCCCCC4)cc32)cc1 |  | inactive: 1.35%
36 | COc1ccccc1CNC(=O)c1ccc2nc(N3CCCCC3)sc2c1 | inactive | 
37 | Cc1ccc(C)c(N2CCN(c3c(CN4CCCC4)c(=O)oc4ccccc34)CC2)c1 |  | inactive: -18.9%
38 | CCCC(=O)Nc1ccccc1OCc1cc(=O)n2cc(C)ccc2n1 |  | inactive: -3.29%
39 | Cc1ccc(CCNC(=O)c2ccc3c(Cl)c4c(nc3c2)CCCC4)cc1 |  | inactive: 4.31%
40 | CCC1CN(C(=O)N2CCC(C(=O)Nc3ccccc3F)CC2)c2ccccc2O1 (stereo not drawn) | inactive | 
41 | Cc1ccc(-n2c(=O)cc(N3CCN(c4ccccc4Cl)CC3)[nH]c2=O)cc1 | inactive | 
42 | O=C(Nc1cccc(Cl)c1Cl)c1cc(S(=O)(=O)NCc2ccc3c(c2)OCO3)ccc1F |  | inactive: 0.572%
43 | Cc1cc(C)cc(NC(=O)CCS(=O)(=O)c2cccc3nsnc23)c1 |  | inactive: 27.1%
44 | Cc1nn(S(=O)(=O)c2ccc(Br)cc2)c(C)c1S(=O)(=O)N1CCCCCC1 | inactive | 
45 | COc1ccc(CC(=O)N2CCc3cc(OC)c(OC)cc3C2COc2cc(C)cc(C)c2)cc1OC (stereo not drawn) |  | inactive: -24.5%
46 | COc1cccc(Cn2c(Oc3cc(C)cc(C)c3)nc3c2c(=O)n(C)c(=O)n3C)c1 | inactive | 
47 | Cc1cccc(C)c1Nc1nn2c(=O)c3cc4c(cc3nc2s1)OCO4 |  | inactive: 3.13%
48 | COc1cccc(NC(=O)C(=O)NCC(c2ccc3c(c2)OCO3)N2CCN(C)CC2)c1 (stereo not drawn) |  | inactive: -0.492%
